Patent publication US20250270302A1

Biological target: huGREM1 and huGREM2 15-mer library peptides covering the aligned residues GREM1 R64 and GREM2 E43 (human)
Test: ELISA on plate-bound 15-mer peptides (0.5 µg/ml), 14-D10-2 at 2.5 µg/ml

- A492 nm (huGREM1 15-mer peptide 1): 0.0925 A492 nm
- A492 nm (huGREM1 15-mer peptide 2): 0.191 A492 nm
- A492 nm (huGREM1 15-mer peptide 3): 0.11 A492 nm
- A492 nm (huGREM2 15-mer peptide 1): 0.365 A492 nm
- A492 nm (huGREM2 15-mer peptide 2): 0.206 A492 nm
- A492 nm (huGREM2 15-mer peptide 3): 0.521 A492 nm
B1: anti-Gremlin-1 antibody 14-D10-2 (antibody, from a related filing, IgG2b, V domains shown)
VH: EVQLQQSGPELVKPGASVKISCKASGYSFTGYYMHWVKQSHGNILDWIGYFFPYNGFSNCNQKFKGKATLTVDKSSSTAYMELRSLTSEDSAVYYCARGGLGRGYFDVWGTGTTVTVSS
VL: DIQMTQSPSYLSVSLGGRVTITCKASDHINNWLAWYQQKPGNAPRLLISGATSLETGVPSRFSGSGSGKDYTLSITSLQTEDVATYYCQQYWSSPRTFGGGTKLEIK

Entries with a single value are a further part of the results.
